Experimental data: paper PMC4336329 (PLoS ONE, 2015)
In all, about 310,000 compounds went through this assay and about 14,000 (4.5%) showed an effect of 50% or more. The effect is printed as a negative number. Some of the results follow.

These compounds were tested against human ether-à-go-go-related gene (hERG) potassium channel (human, UniProt Q12809) (assay: primary screen, population patch clamp on CHO cells stably expressing hERG).
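Further: peak tail current of the secondary pulse compared with the same well before compound.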

human ether-à-go-go-related gene (hERG) potassium channel, sequence (Q12809 whole entry, looked up): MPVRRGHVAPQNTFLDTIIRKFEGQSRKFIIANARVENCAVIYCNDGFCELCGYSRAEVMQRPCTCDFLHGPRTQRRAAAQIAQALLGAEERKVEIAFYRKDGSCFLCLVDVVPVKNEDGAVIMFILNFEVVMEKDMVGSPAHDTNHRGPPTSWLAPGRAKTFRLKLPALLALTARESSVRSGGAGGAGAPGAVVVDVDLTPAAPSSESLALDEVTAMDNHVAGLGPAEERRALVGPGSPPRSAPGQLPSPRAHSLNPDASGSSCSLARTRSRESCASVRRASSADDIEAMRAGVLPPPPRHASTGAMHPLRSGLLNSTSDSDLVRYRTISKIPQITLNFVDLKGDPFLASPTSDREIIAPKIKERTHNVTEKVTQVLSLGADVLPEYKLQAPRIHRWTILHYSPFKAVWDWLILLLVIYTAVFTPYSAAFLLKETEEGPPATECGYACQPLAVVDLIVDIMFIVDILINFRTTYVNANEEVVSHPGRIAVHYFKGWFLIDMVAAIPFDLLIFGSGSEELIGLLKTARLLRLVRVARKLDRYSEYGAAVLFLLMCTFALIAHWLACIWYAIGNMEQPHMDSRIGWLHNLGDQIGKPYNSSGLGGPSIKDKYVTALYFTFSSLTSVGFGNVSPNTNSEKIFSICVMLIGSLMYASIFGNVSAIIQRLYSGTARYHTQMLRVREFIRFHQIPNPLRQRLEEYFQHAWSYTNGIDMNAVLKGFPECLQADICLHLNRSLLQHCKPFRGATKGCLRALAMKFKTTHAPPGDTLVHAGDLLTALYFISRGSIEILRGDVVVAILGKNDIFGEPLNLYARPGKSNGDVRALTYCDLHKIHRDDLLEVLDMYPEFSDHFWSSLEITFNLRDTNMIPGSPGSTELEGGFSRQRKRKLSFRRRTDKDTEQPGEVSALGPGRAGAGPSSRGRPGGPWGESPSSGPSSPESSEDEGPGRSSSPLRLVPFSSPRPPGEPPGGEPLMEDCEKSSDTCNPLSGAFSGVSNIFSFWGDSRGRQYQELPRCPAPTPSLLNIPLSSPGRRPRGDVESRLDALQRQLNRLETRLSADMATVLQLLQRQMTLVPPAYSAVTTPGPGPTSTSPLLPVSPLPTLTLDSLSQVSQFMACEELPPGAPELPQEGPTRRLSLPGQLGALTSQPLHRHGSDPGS

First: CC(c1ccccc1)N1CC(C(=O)O)CC1=O (stereo not shown)
Second: COC(=O)c1ccccc1NC(=O)C1CC(=O)N(c2ccc(C)c(C)c2)C1 (stereo not shown)
The “hERG current change (%, negative = inhibition) at 10uM” value of the first is higher: 10.7% for the first, -13.1% for the second.

First: COc1ccc(CCNC2CC(=O)N(C)C2=O)cc1OC (stereo not shown)
Second: COc1ccc2c(c1OC)C(=O)N1C2SC[C@H]1C(=O)NC1CC1 (stereo partly shown)
The “hERG current change (%, negative = inhibition) at 10uM” value of the first is lower: -8.54% for the first, 5.58% for the second.

Going from `Cc1ccc(CNC2CCCCC2)s1.Cl` to `Cc1sc(NC(=S)NC(=O)C2CCCCC2)c(C(N)=O)c1C`, the “hERG current change (%, negative = inhibition) at 10uM” value rises from -13.9% to 18.7%.

Compared with `CCOc1ccc(CN(C)CC(=O)Nc2ccc3c(c2)CCC3)cc1OC`, `CCN(Cc1cc2cc(OC)ccc2[nH]c1=O)C(=O)Cc1ccc(OC)cc1` is higher in “hERG current change (%, negative = inhibition) at 10uM” value: -39% for the first, -22.2% for the second.

Going from `CCOc1cc(C)c(Cl)cc1S(=O)(=O)N1CCCC1` to `CC(C)CNS(=O)(=O)c1cc(C(=O)O)c(Cl)cc1Cl`, the “hERG current change (%, negative = inhibition) at 10uM” value rises from -14.2% to 8.41%.

Compared with `Cc1ccc(C)c(S(=O)(=O)NCC(c2ccco2)N2CCc3ccccc3C2)c1` (stereo not shown), `Cc1ccc(C)c(S(=O)(=O)N2CCCOC2CNC(=O)C(=O)NCCc2ccccc2)c1` (stereo not shown) is higher in “hERG current change (%, negative = inhibition) at 10uM” value: -9.3% for the first, 4.01% for the second.

First: O=C(NC(CC(=O)N1CCN(c2ccccc2)CC1)c1ccccc1)c1ccccc1Cl (stereo not shown)
Second: O=C(c1ccc(Cl)c(Cl)c1)N1CCC(=O)N(C(COCc2ccc(Cl)cc2)Cc2ccccc2)CC1 (stereo not shown)
The “hERG current change (%, negative = inhibition) at 10uM” value of the first is lower: -46.8% for the first, -12.8% for the second.

Going from `COC(=O)c1ccc(S(N)(=O)=O)o1` to `CC1CCCCN1S(=O)(=O)c1coc(C(N)=O)c1` (stereo not shown), the “hERG current change (%, negative = inhibition) at 10uM” value rises from -13% to 2.36%.

Compared with `N#Cc1c(NC(=O)c2ccc([N+](=O)[O-])o2)sc2c1CCC2`, `CCOC(=O)c1c(NC(=O)CSc2nnc(-c3c[nH]c4ccccc34)n2CC)sc2c1CCCC2` is higher in “hERG current change (%, negative = inhibition) at 10uM” value: 20.8% for the first, 23.1% for the second.

First: O=C1C(Cl)=C(N2CCCCC2)C(=O)N1c1ccccc1
Second: Cc1[nH]c(C)c(S(=O)(=O)N2CCN(c3ccccc3F)CC2)c1C(=O)N1CCCCC1
The “hERG current change (%, negative = inhibition) at 10uM” value of the first is lower: -19.4% for the first, 16.7% for the second.

First: COc1cc(NC(=O)CCc2nc(-c3cccs3)no2)cc(OC)c1OC
Second: CCc1cc(C(=O)c2ccc(OC)cc2)c(NC(=O)COCC(=O)O)s1
The “hERG current change (%, negative = inhibition) at 10uM” value of the first is lower: 10.6% for the first, 19.7% for the second.

Compared with `COc1ccc(C(=S)N2CCOCC2)cc1OC(=O)c1ccc(C)cc1`, `COc1ccc(NC(=O)c2ccc(COc3ccc(C)cc3)o2)cc1` is higher in “hERG current change (%, negative = inhibition) at 10uM” value: -9.27% for the first, 27% for the second.

First: CCN1C(=O)C(C(=O)Nc2ccc(OC)cc2)C2CC1(C)Oc1ccccc12 (stereo not shown)
Second: COc1ccc(C(CNC(=O)Cc2ccc3ccccc3c2)N(C)C)cc1 (stereo not shown)
The “hERG current change (%, negative = inhibition) at 10uM” value of the first is higher: -17.3% for the first, -39.4% for the second.

Compared with `COc1ccc(N(CC(=O)Nc2ccccc2C(=O)NCCc2ccccc2)S(C)(=O)=O)cc1OC`, `CCN(CC(=O)Nc1ccccc1OC)C(=O)CN1C(=O)NC(C)(c2ccccc2)C1=O` (stereo not shown) is higher in “hERG current change (%, negative = inhibition) at 10uM” value: -17.1% for the first, 4.57% for the second.

Compared with `CCOC(=O)Cc1csc(NC(=O)CSc2nnc(C)n2C)n1`, `COc1cccc(-n2c(SCC(=O)Nc3nccs3)nnc2-c2ccoc2C)c1` is lower in “hERG current change (%, negative = inhibition) at 10uM” value: 1.9% for the first, -76.8% for the second.

Compared with `CCCCc1[nH]nc2c1C1(C(=O)N(CC)c3ccccc31)C(C#N)=C(N)O2` (stereo not shown), `CCN(CC)CC.NN1C(=O)/C(=C2/Sc3ccccc3N2CCCS(=O)(=O)O)SC1=S` is higher in “hERG current change (%, negative = inhibition) at 10uM” value: -7.27% for the first, -3.31% for the second.

Going from `CCc1ccc(N(C(=O)c2snc(C(N)=O)c2N)C(C(=O)NCC2CCCO2)c2cccs2)cc1` (stereo not shown) to `COc1ccc(C(=O)NCc2nnc(SCC(=O)NCc3ccc(F)cc3)o2)cc1`, the “hERG current change (%, negative = inhibition) at 10uM” value falls from -1.13% to -12.4%.

Going from `Cc1ccc(OCC(=O)N2N=C(C(F)(F)F)CC2(O)C(C)(C)C)cc1C` (stereo not shown) to `Cc1ccc(C(=O)N2CCCC(C(F)(F)F)C2)cc1S(=O)(=O)N1CCOCC1` (stereo not shown), the “hERG current change (%, negative = inhibition) at 10uM” value rises from -15.9% to -3.3%.

Going from `Cc1cc(C)n(CCC(=O)N2CCCC(Nc3ccc(F)cc3)C2)n1` (stereo not shown) to `CC1CC(C)(C)NC(=S)N1CCC(=O)N1CCN(Cc2ccccc2)CC1` (stereo not shown), the “hERG current change (%, negative = inhibition) at 10uM” value rises from 12.9% to 19.8%.

Compared with `Cc1c(N=Cc2c(O)n(Cc3ccco3)c(=O)[nH]c2=O)c(=O)n(-c2ccccc2)n1C`, `CN1CCN(Cc2nc3c(c(=O)[nH]c(=O)n3C)n2CCc2ccccc2)CC1` is lower in “hERG current change (%, negative = inhibition) at 10uM” value: 7.89% for the first, -28.1% for the second.

Compared with `Cc1noc(/C=C/N(C)C)c1S(=O)(=O)N(C)Cc1ccc(F)cc1`, `CN(CCCC(=O)Nc1ccncc1)S(=O)(=O)c1ccc(Cl)cc1` is lower in “hERG current change (%, negative = inhibition) at 10uM” value: -3.28% for the first, -53.8% for the second.

Compared with `CC1CN(c2ccc([N+](=O)[O-])cn2)CC(C)O1` (stereo not shown), `CC(=O)N1CN(S(=O)(=O)c2ccc(C)cc2)CC1C` (stereo not shown) is higher in “hERG current change (%, negative = inhibition) at 10uM” value: -19.7% for the first, 5.8% for the second.

Going from `COc1ccccc1NC(NC(=O)c1ccccn1)C(Cl)(Cl)Cl` (stereo not shown) to `Cc1ccc(C)c(NC(NC(=O)c2cccnc2)C(Cl)(Cl)Cl)c1` (stereo not shown), the “hERG current change (%, negative = inhibition) at 10uM” value rises from -3.32% to 4.57%.

First: CCc1ccc(OCC(O)CN2CCN(CCO)CC2)cc1.Cl (stereo not shown)
Second: CC(C)c1ccc(C(=O)NCCCN2CCN(CCCNC(=O)c3ccc(C(C)C)cc3)CC2)cc1
The “hERG current change (%, negative = inhibition) at 10uM” value of the first is higher: -15.3% for the first, -84.3% for the second.

Going from `Cc1ccc2cc(CN(CCCO)S(=O)(=O)c3cccc4nsnc34)c(=O)[nH]c2c1C` to `COc1ccc2[nH]c(=O)c(CN(Cc3cccs3)S(=O)(=O)c3cccc4nsnc34)cc2c1`, the “hERG current change (%, negative = inhibition) at 10uM” value rises from -16.1% to -8.11%.

Going from `Cc1onc(COc2ccccc2O)c1Br` to `COc1ccc(/C=N/NC(=O)c2c(-c3ccccc3)noc2C)cc1`, the “hERG current change (%, negative = inhibition) at 10uM” value falls from 11.2% to -14.3%.

First: COc1ccc(N(C)S(=O)(=O)c2cccc(C(=O)Nc3nc(C)cs3)c2)cc1
Second: CCCCN1C(=O)c2ccc(C(=O)Nc3cccnc3)cc2C1=O
The “hERG current change (%, negative = inhibition) at 10uM” value of the first is lower: -49.9% for the first, -6.77% for the second.

Compared with `O=C(c1ccco1)N1CCN(C(=O)c2ccc(CS(=O)c3ccc(Cl)cc3)o2)CC1` (stereo not shown), `COc1ccc(-n2nc(C(=O)NCC(=O)N3CCN(Cc4ccc5c(c4)OCO5)CC3)c3ccccc3c2=O)cc1OC` is higher in “hERG current change (%, negative = inhibition) at 10uM” value: -41% for the first, -11.9% for the second.

Compared with `COc1ccc(S(=O)(=O)NC(CC(=O)N2CCC3(CC2)OCCO3)C(C)C)cc1` (stereo not shown), `Cc1nc2ccc(S(=O)(=O)NC(C(=O)N3CCC(C)CC3)C(C)C)cc2s1` (stereo not shown) is lower in “hERG current change (%, negative = inhibition) at 10uM” value: 10.9% for the first, -0.0501% for the second.

First: O=C(N/N=C/c1cccnc1)c1cccc(NC(=O)c2cccc(Br)c2)c1
Second: O=C(CCC(=O)OCC(=O)c1ccccc1)Nc1cccc2cccnc12
The “hERG current change (%, negative = inhibition) at 10uM” value of the first is higher: 16.7% for the first, -6.75% for the second.

First: COC(=O)N(c1ccc(OC)cc1)P1(=S)OCCC(C)O1 (stereo not shown)
Second: COc1ccc(OCCCC(=O)Nc2nnc(C3CCCO3)s2)cc1 (stereo not shown)
The “hERG current change (%, negative = inhibition) at 10uM” value of the first is higher: 21% for the first, 3.96% for the second.

Compared with `Nc1nc(=S)c2ncn(C3OC(CO)C(O)C3O)c2[nH]1` (stereo not shown), `CCc1nc(N)c(C#N)c(-c2ccco2)c1C` is lower in “hERG current change (%, negative = inhibition) at 10uM” value: 49.6% for the first, 7.36% for the second.

Going from `O=C1C(=O)N(CCN2CCOCC2)C(c2ccc(Cl)c(Cl)c2)/C1=C(/O)c1ccc2c(c1)OCO2` (stereo not shown) to `O=C(NCc1cccnc1)c1ccc2c(c1)OCO2`, the “hERG current change (%, negative = inhibition) at 10uM” value falls from 6.5% to 5.94%.

Going from `CCOc1ccc(N2C(=O)CN(c3cccc4ccccc34)C2=S)cc1` to `COc1ccc(N2C(=O)CC(NC3CCCCNC3=O)C2=O)cc1` (stereo not shown), the “hERG current change (%, negative = inhibition) at 10uM” value rises from 1.18% to 8.59%.

First: O=C(CCNC(=O)Cn1ccc2ccccc2c1=O)NCCCN1CCOCC1
Second: O=C(Cn1cnc2ccccc2c1=O)NCCC(=O)Nc1ccc2c(c1)OCO2
The “hERG current change (%, negative = inhibition) at 10uM” value of the first is lower: 9.16% for the first, 16.4% for the second.

Going from `CCCCN1C(=O)NC(NC(=O)C2CC2)(C(F)(F)F)C1=O` (stereo not shown) to `CCOC(=O)CN1C(=O)N[C@@H](c2cccs2)C(C(=O)OC)=C1C`, the “hERG current change (%, negative = inhibition) at 10uM” value falls from 17.6% to -11%.

Going from `COc1cccc2cc(-c3cc(=O)oc4cc(C)c(O)cc34)oc12` to `COc1cccc(NC(=O)COC(=O)/C=C/c2ccc(Cl)cc2Cl)c1`, the “hERG current change (%, negative = inhibition) at 10uM” value falls from 11.4% to 6.89%.

Going from `CC12CNCC(C)(CN(C(c3ccccc3)c3ccccc3)C1)C2` to `O=C(c1cc2cc(F)ccc2[nH]1)N1CCC(Cc2ccccc2)CC1`, the “hERG current change (%, negative = inhibition) at 10uM” value rises from -19.6% to 19.7%.

First: Cc1nc2nc(C)c(CCC(=O)N3CCOCC3)c(C)n2n1
Second: Cc1nonc1C(=O)N/N=C/c1ccncc1
The “hERG current change (%, negative = inhibition) at 10uM” value of the first is lower: -21% for the first, 5.11% for the second.

First: COc1cc2c3c(c1)C(C)CC(C)(C)N3C(=O)C2=O (stereo not shown)
Second: CC(C)N(C(=O)CC1ON(C)C(=O)N1c1ccc(Cl)cc1)C(C)C (stereo not shown)
The “hERG current change (%, negative = inhibition) at 10uM” value of the first is higher: -20.7% for the first, -31.9% for the second.

First: COc1cc([C@H]2c3[nH]c4ccccc4c3C[C@H]3C(=O)N4[C@@H](c5cc(OC)c(OC)c(OC)c5)c5[nH]c6ccccc6c5C[C@H]4C(=O)N23)cc(OC)c1OC
Second: CCOc1ccc(-c2cc(C)[n+](CCc3ccc(OC)c(OC)c3)c(-c3ccc(OCC)cc3)c2)cc1.[O-][Cl+3]([O-])([O-])[O-]
The “hERG current change (%, negative = inhibition) at 10uM” value of the first is higher: -31.1% for the first, -83.1% for the second.

Going from `Cl.O=C(N1CCN(Cc2ccccc2)CC1)C12CC3CC(CC(C3)C1)C2` to `O=C(NCc1cccnc1)c1ccc(S(=O)(=O)N2CCCCC2)cc1`, the “hERG current change (%, negative = inhibition) at 10uM” value rises from -8.81% to -6.59%.

`O=C(CSc1nnc(CNc2cccc(C(F)(F)F)c2)n1Cc1ccco1)NCc1ccco1` was tested, and the “hERG current change (%, negative = inhibition) at 10uM” value was 16.8%.
